# This is one part of the list.
# B1: NakA (Mycobacterium tuberculosum) (protein)
# chain: SVVKPTKVTVFSPDGGADNPGEADLAIDGNPATSWKTDIYTDPVPFPSFKNGVGLMLQLPQATVVGTVAIDVASTGTKVEIRSASTPTPATLEDTAVLTSATALRPGHNTISVEAAAPTSNLLVWISTLGTTDGKSQADISEITIYAASD
# Assays:
# Experiment in all cases: glycan array binding signal (z-score within array); higher = stronger binding
# Conditions in all cases: glycan notation: IUPAC condensed, linker removed
# [1] = target: Neu5Ac(a2-3)Gal(b1-3)GalNAc(b1-3)Gal(a1-4)Gal(b1-4)Glc
# Outline: (§1)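 The binding signal is a Z-score computed within each array. Data were drawn from 3228 arrays in the Consortium for Functional Glycomics database, restricted to those with a known protein sequence. Scores were averaged over arrays of the same protein sequence at different concentrations or buffers, and over linkers, and negative values can be taken as non-binding.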
# [2] = target: Neu5Ac(a2-3)Gal(b1-3)GalNAc(b1-4)[Neu5Ac(a2-3)]Gal(b1-4)Glc
# Outline: as §1
# [3] = target: Neu5Ac(a2-3)Gal(b1-3)GalNAc6S
# Outline: as §1
# [4] = target: Neu5Ac(a2-3)Gal(b1-3)GlcNAc
# Outline: as §1
# [5] = target: Neu5Ac(a2-3)Gal(b1-3)GlcNAc(b1-3)Gal(b1-4)GlcNAc
# Outline: as §1
# [6] = target: Neu5Ac(a2-3)Gal(b1-3)GlcNAc6S
# Outline: as §1
# [7] = target: Neu5Ac(a2-3)Gal(b1-3)[Fuc(a1-4)]GlcNAc
# Outline: as §1
# [8] = target: Neu5Ac(a2-3)Gal(b1-3)[Fuc(a1-4)]GlcNAc(b1-3)Gal(b1-4)[Fuc(a1-3)]GlcNAc
# Outline: as §1
# [9] = target: Neu5Ac(a2-3)Gal(b1-3)[Neu5Ac(a2-3)Gal(b1-4)]GlcNAc
# Outline: as §1
# [10] = target: Neu5Ac(a2-3)Gal(b1-3)[Neu5Ac(a2-6)]GalNAc
# Outline: as §1
# Neu5Ac(a2-3)Gal(b1-4)Glc = target: Neu5Ac(a2-3)Gal(b1-4)Glc
# Outline: as §1
# [11] = target: Neu5Ac(a2-3)Gal(b1-4)GlcNAc
# Outline: as §1
# [12] = target: Neu5Ac(a2-3)Gal(b1-4)GlcNAc(b1-3)Gal(b1-4)GlcNAc
# Outline: as §1
# [13] = target: Neu5Ac(a2-3)Gal(b1-4)GlcNAc(b1-3)Gal(b1-4)GlcNAc(b1-3)Gal(b1-4)GlcNAc
# Outline: as §1
# [14] = target: Neu5Ac(a2-3)Gal(b1-4)GlcNAc(b1-3)Gal(b1-4)[Fuc(a1-3)]GlcNAc
# Outline: as §1
# [15] = target: Neu5Ac(a2-3)Gal(b1-4)GlcNAc6S
# Outline: as §1
# [16] = target: Neu5Ac(a2-3)Gal(b1-4)[Fuc(a1-3)]GlcNAc
# Outline: as §1
# [17] = target: Neu5Ac(a2-3)Gal(b1-4)[Fuc(a1-3)]GlcNAc(b1-3)Gal
# Outline: as §1
# [18] = target: Neu5Ac(a2-3)Gal(b1-4)[Fuc(a1-3)]GlcNAc(b1-3)Gal(b1-4)GlcNAc
# Outline: as §1
# [19] = target: Neu5Ac(a2-3)Gal(b1-4)[Fuc(a1-3)]GlcNAc(b1-3)Gal(b1-4)[Fuc(a1-3)]GlcNAc(b1-3)Gal(b1-4)[Fuc(a1-3)]GlcNAc
# Outline: as §1
# [20] = target: Neu5Ac(a2-3)Gal(b1-4)[Fuc(a1-3)]GlcNAc6S
# Outline: as §1
# [21] = target: Neu5Ac(a2-3)Gal6S(b1-4)GlcNAc
# Outline: as §1
# [22] = target: Neu5Ac(a2-3)Gal6S(b1-4)[Fuc(a1-3)]GlcNAc
# Outline: as §1
# Neu5Ac(a2-3)GalNAc = target: Neu5Ac(a2-3)GalNAc
# Outline: as §1
# [23] = target: Neu5Ac(a2-3)GalNAc(b1-4)GlcNAc
# Outline: as §1
# [24] = target: Neu5Ac(a2-3)[GalNAc(b1-4)]Gal(b1-4)Glc
# Outline: as §1
# [25] = target: Neu5Ac(a2-3)[GalNAc(b1-4)]Gal(b1-4)GlcNAc
# Outline: as §1
# [26] = target: Neu5Ac(a2-3)[Neu5Ac(a2-6)]GalNAc
# Outline: as §1
# [27] = target: Neu5Ac(a2-6)Gal(b1-4)GlcNAc
# Outline: as §1
# [28] = target: Neu5Ac(a2-6)Gal(b1-4)GlcNAc(b1-2)Man(a1-3)[Neu5Ac(a2-6)Gal(b1-4)GlcNAc(b1-2)Man(a1-6)]Man(b1-4)GlcNAc(b1-4)GlcNAc
# Outline: as §1
# [29] = target: Neu5Ac(a2-6)Gal(b1-4)GlcNAc(b1-3)Gal(b1-4)GlcNAc
# Outline: as §1
# [30] = target: Neu5Ac(a2-6)Gal(b1-4)GlcNAc(b1-3)Gal(b1-4)[Fuc(a1-3)]GlcNAc(b1-3)Gal(b1-4)[Fuc(a1-3)]GlcNAc
# Outline: as §1
# [31] = target: Neu5Ac(a2-6)Gal(b1-4)GlcNAc6S
# Outline: as §1
# Neu5Ac(a2-6)GalNAc = target: Neu5Ac(a2-6)GalNAc
# Outline: as §1
# [32] = target: Neu5Ac(a2-6)GalNAc(b1-4)GlcNAc
# Outline: as §1
# Neu5Ac(a2-8)Neu5Ac = target: Neu5Ac(a2-8)Neu5Ac
# Outline: as §1
# [33] = target: Neu5Ac(a2-8)Neu5Ac(a2-3)Gal(b1-4)Glc
# Outline: as §1
# [34] = target: Neu5Ac(a2-8)Neu5Ac(a2-3)[GalNAc(b1-4)]Gal(b1-4)Glc
# Outline: as §1
# [35] = target: Neu5Ac(a2-8)Neu5Ac(a2-8)Neu5Ac
# Outline: as §1
# [36] = target: Neu5Ac(a2-8)Neu5Ac(a2-8)Neu5Ac(a2-3)Gal(b1-4)Glc
# Outline: as §1
# [37] = target: Neu5Ac(a2-8)Neu5Ac(a2-8)Neu5Ac(a2-3)[GalNAc(b1-4)]Gal(b1-4)Glc
# Outline: as §1
# [38] = target: Neu5Ac(a2-8)Neu5Ac(a2-8)Neu5Ac(a2-8)Neu5Ac(a2-3)[GalNAc(b1-4)]Gal(b1-4)Glc
# Outline: as §1
# [39] = target: Neu5Ac9Ac(a2-6)Gal(b1-4)GlcNAc
# Outline: as §1
# [40] = target: Neu5Gc(a2-3)Gal(b1-3)GlcNAc
# Outline: as §1
# [41] = target: Neu5Gc(a2-3)Gal(b1-3)[Fuc(a1-4)]GlcNAc
# Outline: as §1
# Neu5Gc(a2-3)Gal(b1-4)Glc = target: Neu5Gc(a2-3)Gal(b1-4)Glc
# Outline: as §1
# [42] = target: Neu5Gc(a2-3)Gal(b1-4)GlcNAc
# Outline: as §1
# [43] = target: Neu5Gc(a2-3)Gal(b1-4)[Fuc(a1-4)]GlcNAc
# Outline: as §1
# [44] = target: Neu5Gc(a2-6)Gal(b1-4)GlcNAc
# Outline: as §1
# Neu5Gc(a2-6)GalNAc = target: Neu5Gc(a2-6)GalNAc
# Outline: as §1
binder,measurement,setting,value
B1,glycan array binding signal (z-score),[1],-0.407
same,glycan array binding signal (z-score),[2],-0.597
same,glycan array binding signal (z-score),[3],-0.469
same,glycan array binding signal (z-score),[4],-0.369
same,glycan array binding signal (z-score),[5],-0.659
same,glycan array binding signal (z-score),[6],-0.604
same,glycan array binding signal (z-score),[7],-0.371
same,glycan array binding signal (z-score),[8],-0.309
same,glycan array binding signal (z-score),[9],-0.561
same,glycan array binding signal (z-score),[10],-0.54
same,glycan array binding signal (z-score),Neu5Ac(a2-3)Gal(b1-4)Glc,-0.536
same,glycan array binding signal (z-score),[11],-0.471
same,glycan array binding signal (z-score),[12],-0.599
same,glycan array binding signal (z-score),[13],-0.596
same,glycan array binding signal (z-score),[14],-0.467
same,glycan array binding signal (z-score),[15],-0.408
same,glycan array binding signal (z-score),[16],-0.418
same,glycan array binding signal (z-score),[17],-0.315
same,glycan array binding signal (z-score),[18],-0.085
same,glycan array binding signal (z-score),[19],-0.405
same,glycan array binding signal (z-score),[20],-0.545
same,glycan array binding signal (z-score),[21],-0.541
same,glycan array binding signal (z-score),[22],-0.346
same,glycan array binding signal (z-score),Neu5Ac(a2-3)GalNAc,-0.666
same,glycan array binding signal (z-score),[23],-0.649
same,glycan array binding signal (z-score),[24],-0.601
same,glycan array binding signal (z-score),[25],-0.309
same,glycan array binding signal (z-score),[26],-0.641
same,glycan array binding signal (z-score),[27],-0.439
same,glycan array binding signal (z-score),[28],-0.479
same,glycan array binding signal (z-score),[29],-0.501
same,glycan array binding signal (z-score),[30],-0.484
same,glycan array binding signal (z-score),[31],-0.628
same,glycan array binding signal (z-score),Neu5Ac(a2-6)GalNAc,-0.54
same,glycan array binding signal (z-score),[32],-0.48
same,glycan array binding signal (z-score),Neu5Ac(a2-8)Neu5Ac,-0.242
same,glycan array binding signal (z-score),[33],-0.189
same,glycan array binding signal (z-score),[34],-0.598
same,glycan array binding signal (z-score),[35],-0.501
same,glycan array binding signal (z-score),[36],-0.19
same,glycan array binding signal (z-score),[37],-0.632
same,glycan array binding signal (z-score),[38],-0.581
same,glycan array binding signal (z-score),[39],-0.459
same,glycan array binding signal (z-score),[40],-0.404
same,glycan array binding signal (z-score),[41],-0.676
same,glycan array binding signal (z-score),Neu5Gc(a2-3)Gal(b1-4)Glc,-0.526
same,glycan array binding signal (z-score),[42],-0.644
same,glycan array binding signal (z-score),[43],-0.491
same,glycan array binding signal (z-score),[44],-0.444
same,glycan array binding signal (z-score),Neu5Gc(a2-6)GalNAc,-0.397
